Assay results taken from paper PMC4336329 (PLoS ONE, 2015).
Hit rate of the full screen: of about 310,000 compounds, about 2,200 (0.71%) showed an effect of 50% or more. Effects have a minus sign here. The list shows a part of the results.

Each compound was assayed against human ether-à-go-go-related gene (hERG) potassium channel (human, UniProt Q12809) (assay: primary screen, population patch clamp on CHO cells stably expressing hERG).
Chain of human ether-à-go-go-related gene (hERG) potassium channel (Q12809 whole entry, looked up): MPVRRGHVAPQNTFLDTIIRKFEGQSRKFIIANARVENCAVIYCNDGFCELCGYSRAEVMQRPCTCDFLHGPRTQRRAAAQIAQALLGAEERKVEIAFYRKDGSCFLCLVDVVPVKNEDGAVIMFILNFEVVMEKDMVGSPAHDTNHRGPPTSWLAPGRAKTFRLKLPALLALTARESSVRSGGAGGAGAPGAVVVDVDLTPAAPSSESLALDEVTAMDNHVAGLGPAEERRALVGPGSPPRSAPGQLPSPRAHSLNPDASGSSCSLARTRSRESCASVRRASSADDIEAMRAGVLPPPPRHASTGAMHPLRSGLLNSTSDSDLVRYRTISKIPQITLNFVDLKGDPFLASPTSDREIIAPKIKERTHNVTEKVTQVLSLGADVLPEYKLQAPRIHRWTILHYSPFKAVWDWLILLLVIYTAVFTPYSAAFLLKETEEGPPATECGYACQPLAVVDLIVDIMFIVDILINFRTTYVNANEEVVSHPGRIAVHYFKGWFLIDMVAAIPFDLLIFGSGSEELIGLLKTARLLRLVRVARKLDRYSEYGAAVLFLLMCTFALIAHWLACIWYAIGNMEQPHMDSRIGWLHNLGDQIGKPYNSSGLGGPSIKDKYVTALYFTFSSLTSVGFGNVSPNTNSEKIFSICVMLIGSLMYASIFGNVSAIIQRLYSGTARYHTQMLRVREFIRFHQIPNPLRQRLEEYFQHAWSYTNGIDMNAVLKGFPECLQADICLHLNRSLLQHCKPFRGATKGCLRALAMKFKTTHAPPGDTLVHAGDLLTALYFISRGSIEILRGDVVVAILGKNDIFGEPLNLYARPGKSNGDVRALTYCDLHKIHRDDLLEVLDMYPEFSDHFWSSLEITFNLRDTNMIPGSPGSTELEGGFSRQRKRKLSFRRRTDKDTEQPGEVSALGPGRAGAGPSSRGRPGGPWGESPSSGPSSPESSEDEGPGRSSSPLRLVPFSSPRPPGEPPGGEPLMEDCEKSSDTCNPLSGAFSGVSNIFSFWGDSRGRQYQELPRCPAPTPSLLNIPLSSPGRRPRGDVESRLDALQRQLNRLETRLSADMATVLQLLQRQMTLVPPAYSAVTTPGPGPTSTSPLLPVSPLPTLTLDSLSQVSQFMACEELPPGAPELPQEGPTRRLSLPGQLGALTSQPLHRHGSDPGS

SMILES	hERG current change (%, negative = inhibition) at 1uM [%]
Cc1cccc2sc(NC(=O)CSCc3ccccc3)nc12	14
O=C(OCc1ccccn1)c1ccc(COc2ccc3ccccc3c2)o1	7.15
Cn1c(NC(=O)c2ccccc2)c(-c2ccccn2)c(=O)c2ccccc21	10.5
O=S1(=O)N=C(N/N=C/c2cccs2)c2ccccc21	14.4
NC(=O)CN1C(=O)C2CCCCN2C(=O)c2ccccc21.O=C(O)C(=O)O (stereo not drawn)	12.2
COc1ccc(N(CC(=O)N/N=C/c2cc(Br)c(C)o2)S(=O)(=O)c2ccc(NC(C)=O)cc2)cc1	15.4
C[C@@H]1CCC[C@]2(O[C@H](CCO)C[C@@H](O)[C@@H]2O)O1	3.28
CCCCc1nc(SCc2ccc([N+](=O)[O-])cc2)n[nH]1	0.73
COCC1CCN(C(=O)c2cc(COc3ccc(-n4cncn4)cc3)on2)C1 (stereo not drawn)	10.8
CC1(C)CC(=O)C2=C(C1)NC1=C(C(=O)c3ccccc31)C2c1ccccc1 (stereo not drawn)	1.46
O=C(COC(=O)C12CC3CC(CC(Br)(C3)C1)C2)Nc1ccc2[nH]c(=O)[nH]c2c1	-4.07
COCOc1ccc(-c2cc(=O)c3c(O)cc(OCOC)cc3o2)cc1	7.27
CCCCN1C(=O)C(O)(CC(=O)c2ccco2)c2cc(Br)ccc21 (stereo not drawn)	14.6
O=C(O)CCCNS(=O)(=O)c1cccc2nsnc12	15.2
Cc1ccc(S(=O)(=O)NC(=O)Nc2cc(C)ccc2F)cc1	6
CN(C)CCSc1nc(-c2ccccc2)nc2c1COC(C)(C)C2	-37.8
Nc1scc2c(C(=O)O)nn(-c3ccccc3)c(=O)c12	10.6
C[C@@H](NC(=O)c1[nH]cnc1C(=O)Nc1nccs1)c1ccccc1	-1.77
O=C(Nc1ccccc1)c1cn2ccccc2n1	6.81

SMILES	hERG current change (%, negative = inhibition) at 1uM [%]
CC(C)C(=O)NC(C)C(c1cccs1)N1CCOCC1 (stereo not drawn)	11.8
NC(=O)COc1ccc(/C=N/NC(=O)C2CCCN2S(=O)(=O)c2ccc(Cl)cc2)cc1 (stereo not drawn)	18.5
O=C(O)CSc1nnc(CSc2nc3ccccc3s2)n1-c1ccccc1	12.8
CC(C)NC(=O)CSc1nc2sccc2c(=O)n1-c1ccccc1	8.32
O=C(COc1ccc2ccccc2c1)Nc1ccc2c3c(cccc13)CC2	-5.81
O=C(NCc1ccccc1)C1CCC(=O)N(CC2CCCCC2)C1 (stereo not drawn)	12.6
CC(C)[C@H](Nc1ccc(S(=O)(=O)N2CCOCC2)cc1[N+](=O)[O-])C(=O)OCC(=O)N(C(C)C)C(C)C	3.36
CSc1nc(N2CCOCC2)c2sccc2n1	13.5
COCCn1c(SCc2cccnc2)nnc1-c1ccco1	9.53
O=C(Nc1nc(-c2ccc(F)cc2)cs1)c1cccc(N2C(=O)CCC2=O)c1	6.1
COC(=O)c1ccccc1NC(=O)Nc1cc(C(C)(C)C)on1	15.4
CCCCOc1ccc(Cc2c(O)nc(SC)[nH]c2=O)cc1	16.4
Cc1ccc(-c2csc(NC(=O)c3ccc([N+](=O)[O-])o3)n2)cc1	10.4
CC1CCCN(c2ccc(C(=O)N3CCC4(CC3)OCCO4)cc2[N+](=O)[O-])C1 (stereo not drawn)	-7.08
Cc1c(C(=O)NC2CCS(=O)(=O)C2)oc2ccccc12 (stereo not drawn)	13.2
CCOc1ccc(CN(C)C(=O)c2ccc(S(=O)(=O)N(C)c3ccccc3OC)cc2)cc1	4.09
Cc1cc(C)n(-c2ccc(Cl)c(C(=O)O)c2)n1	9.5
COc1ccc(/C=C/C(=O)NC(=S)NNC(=O)c2cccs2)cc1	16.6
O=C(CNC(=O)C1CCCCC1)Nc1ccc(Cl)cc1	11.2

SMILES	hERG current change (%, negative = inhibition) at 1uM [%]
O=[N+]([O-])c1ccc(-c2cnc(SC(c3ccccc3)c3ccccc3)[nH]2)cc1	8.26
CC(C)(CN1CCN(c2ccccc2)CC1)NS(=O)(=O)c1ccccc1	3.9
CC(C)CC(NC(=O)C1CCC(C)CC1)C(=O)N1CCN(c2ccccn2)CC1 (stereo not drawn)	-17.4
CCCNS(=O)(=O)c1ccc(OCC(=O)N2CCN(Cc3ccc4c(c3)OCO4)CC2)c(C)c1	-18.6
COc1ccc(C(=O)Nc2ccnn2C2CCN(C(C)CSC)CC2)cc1 (stereo not drawn)	10.2
CC1(C)CNC(=O)c2sc(N3CCOCC3)nc2C1	11.8
O=C(Nc1cccc(O)c1)C(=O)Nc1ccccn1	10.1
CC(=O)c1c(C)[nH]c(C(=O)OC2CCCCC2=O)c1C (stereo not drawn)	12
COC(=O)C1=C(c2ccc(C(C)=O)cc2)C[C@@H]2CC[C@H]1N2C(=O)NCCCOC(C)C	4.47
CC(C)C(=O)NCCc1nc2ccccc2n1CCOc1ccccc1	14
COc1ccc(CCn2c(=N)c(C(=O)NC3CCCC3)cc3c(=O)n4cccc(C)c4nc32)cc1	-79.9
N#Cc1ccc(-c2ccco2)nc1SCC(=O)c1ccc(Cl)cc1	16.4
COc1ccc(-c2c(=O)n(OC)c3ccccc3[n+]2[O-])cc1OC	18.1
Cc1ccc(C(=O)C(C)OC(=O)C2=COCCO2)cc1C (stereo not drawn)	5.88
OCCNCC(O)Cn1c2ccccc2c2ccccc21 (stereo not drawn)	15.9
Cc1c(CCC(=O)N2CCC(C(=O)O)CC2)c(=O)oc2cc3oc4c(c3cc12)CCCC4	6.99
O=C(N/N=C/c1ccccc1)c1ccc2c(c1)OCO2	5.33
CCCC/C(=N\NC(=O)c1ccc(Br)o1)c1ccccc1	10.1
COc1ccc(C(=O)OCC2CC(c3ccccc3)N(C)O2)cc1 (stereo not drawn)	13.5
